PubChem BioAssay AID2551 (National Center for Advancing Translational Sciences (NCATS), 2010)
Out of some 310,000 compounds screened, about 17,000 (5.5%) were called active. About 11% were inconclusive and are not listed. Calls follow the shape of the dose curve; as a rule, active = well fitted inhibition curve with a large enough effect; inconclusive = small, poorly fitted or top-dose-only effect, or effect the other way; inactive = no such curve, though single readings can be large or run the other way. The list shows a part of the results, in another mix than the full data. More than one record can exist for a structure, and the calls need not agree.

target: Nuclear receptor ROR-gamma (Mus musculus) (UniProt P51450); assay: qHTS for inhibitors of ROR gamma transcriptional activity; conditions: Drosophila S2 Gal4-RORgamma UAS-luciferase reporter, 20 h; series mostly up to 53.6 µM; activity change, negative = inhibition: at the top concentration; also: nearly all actives have a fitted effect of over 60% in size
UniProt P51450, sequence (P51450 whole entry, looked up, the tested form may be a part): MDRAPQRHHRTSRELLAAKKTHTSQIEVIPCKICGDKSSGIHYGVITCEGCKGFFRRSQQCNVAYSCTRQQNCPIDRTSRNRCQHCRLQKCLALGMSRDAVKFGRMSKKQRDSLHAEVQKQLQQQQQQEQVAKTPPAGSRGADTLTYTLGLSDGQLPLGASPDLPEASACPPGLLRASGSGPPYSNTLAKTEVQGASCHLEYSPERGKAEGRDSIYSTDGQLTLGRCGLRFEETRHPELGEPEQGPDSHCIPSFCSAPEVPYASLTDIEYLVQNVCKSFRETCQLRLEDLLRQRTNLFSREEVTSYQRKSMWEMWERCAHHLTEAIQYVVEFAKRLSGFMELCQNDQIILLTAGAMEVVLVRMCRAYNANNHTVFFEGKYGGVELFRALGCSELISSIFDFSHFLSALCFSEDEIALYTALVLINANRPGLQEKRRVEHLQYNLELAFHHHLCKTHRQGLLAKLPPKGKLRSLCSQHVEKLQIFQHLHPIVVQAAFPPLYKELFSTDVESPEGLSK
Source text: NIH Molecular Libraries Probe Production Network [MLPCN] NIH Chemical Genomics Center [NCGC] MLPCN Grant: R03 DA026211-01 Assay Provider: Dan Littman, New York University Assay Overview: The retinoic acid-related orphan receptor (ROR) gamma is a transcription factor that has a central role in the differentiation of Th17 cells, a subset of T helper cells that secrete the inflammatory cytokines IL-17, IL-17F, and IL-22. Th17 cells have been implicated in graft versus host disease, autoimmune disease and asthma. ROR gamma is induced in naive T helper cells in the presence of TGF-beta combined with IL-6, IL-21, or IL-23, and thereafter directs the expression of the Th17 lineage cytokines. To study the mechanism of action of ROR gamma, an insect cell-based assay was screened. This Drosophila Schneider cell line was stably transfected with two vectors: a gene expressing a fusion of the Gal4 DNA binding domain and ROR gamma transactivation domain under the control of the metallothionine promoter and a Photinus luciferase reporter regulated by the Gal4 binding site enhancer, UAS. […] Small molecule inhibitors of ROR gamma activity are detected by a decrease in luciferase reporter activity.
Assay Protocol Summary: For screening, 600 cells in 4 uL/well were dispensed into white solid 1536-well plates (Grenier) using a solenoid-based dispenser. Following transfer of 23 nL compound or DMSO vehicle by a pin tool, the plates were incubated 1 hr at ambient temperature, and 1 uL/well copper sulfate (700 uM final concentration) was added. The plates were centrifuged 15 s at 1000 RPM and incubated 20 hr at ambient temperature. After addition of 1.5 uL Photinus luciferase detection reagent, the plates were incubated 10 min at ambient temperature and then read by an ViewLux (Perkin Elmer) to detect luminescence. Keywords: NIH Roadmap, MLPCN, MLI, MLSMR, qHTS, NCGC, qHTS, nuclear hormone receptor, retinoic acid-related orphan receptor, ROR gamma
% is scaled to controls: 0 for no effect and ±100 for the full control effect; potency is read from the fitted curve at half-maximal effect.

| Structure (SMILES) | activity change, negative = inhibition | Potency |
| --- | --- | --- |
| CC(C)(O)C1C2OC(=O)C1C1(O)CC3OC34C(=O)OC2C14C (stereo unspecified) | inactive: 42.9% |  |
| CN1C(=O)CCS(=O)(=O)[C@@H]1c1ccc(Cl)cc1 | inactive: 12.2% [at 16.9 µM] |  |
| COc1cc2c(cc1O)CC1c3c(cc(O)c(OC)c3-2)CCN1C (stereo unspecified) | inactive |  |
| C[C@]12CC[C@H]3C(=CCc4cc(O)ccc43)[C@@H]1CCC2=O | inactive: 12.6% |  |
| CC(=O)c1c(O)c(C)c(O)c(Cc2c(O)c3c(c(C(=O)/C=C/c4ccccc4)c2O)OC(C)(C)C=C3)c1O | inactive: 15.8% |  |
| CN1C(=O)CCS(=O)(=O)C1c1ccc(Cl)cc1 (stereo unspecified) | inactive |  |
| c1ccc2c(c1)OCC(C1=NCCN1)O2 (stereo unspecified) | inactive: -3.5% |  |
| O=C(O)c1cc(O)c(O)c(O)c1 | inactive: 1.5% |  |
| Cc1ccc(/C=C2/C(=O)NC(=O)N(CCc3ccc(F)cc3)C2=O)o1 | inactive: 24.9% |  |
| CO/C1=C\C(C)=C\[C@@H](C)[C@@H](O)[C@@H](C)C/C(C)=C/C=C\[C@H](OC)C([C@@H](C)[C@@H](O)[C@H](C)[C@@]2(O)C[C@@H](O)[C@H](C)C(C(C)C)O2)OC1=O (stereo partly specified) | inactive: 44.3% [at 1.91 µM] |  |
| C[C@@]12CC[C@H]3[C@@H](CCC4=CC(=O)CC[C@]43C)[C@H]1CC[C@H]2C(=O)CO | inactive: -1.21% [at 16.9 µM] |  |
| O=C(O)c1nn(Cc2ccc(Cl)cc2Cl)c2ccccc12 | inactive |  |
| O=c1[nH]oc2c1CCNC2 | inactive |  |
| O=C1CN(O)C(c2ccccc2)=c2cc(Cl)ccc2=N1 | inactive: 7.12% |  |
| C[C@H](CCC(=O)O)C[C@H](C)C[C@H](C)C(=O)/C=C(\O)[C@H](C)C[C@H](C)C/C=C/[C@@H](C)[C@@H](O)[C@@H](C)[C@@H](O)C[C@@H]1CC[C@@](C)([C@H]2CC[C@@](C)([C@@H](C)O)O2)O1 | inactive: -2.34% |  |
| O=c1ccc2cc(O[C@H]3O[C@@H](CO)[C@@H](O)[C@@H](O)[C@@H]3O)c(O)cc2o1 | inactive: -5.9% [at 2.98 µM] |  |
| O=c1c2ccccc2[se]n1-c1ccccc1 |  | active: 10000 nM |
| CCNc1nc(Cl)nc(NC(C)C)n1 | inactive |  |
| C[N+]1(C)[C@@H]2CC(OC(=O)[C@H](CO)c3ccccc3)C[C@H]1[C@@H]1O[C@@H]12 (stereo partly specified) | inactive |  |
| Cc1cc(O)ccc1Cl | inactive: 10% |  |
| COC(=O)[C@@]1(Cc2ccc(F)cc2)[C@H]2c3cc(C(=O)N(C)C)[nH]c3C[C@H]2CN1C(=O)c1ccccc1 | inactive: 20.9% |  |
| CCCCC/C=C\C/C=C\C/C=C\C/C=C\CCCC(=O)Nc1ccc(O)cc1C | inactive: 2.32% |  |
| CC[C@]12C=CCN3CCC4(c5cc(Br)c(OC)cc5N(C)C4[C@@](O)(C(=O)OC)[C@@H]1OC(C)=O)C32 (stereo partly specified) | inactive: 24.9% |  |

| Structure (SMILES) | activity change, negative = inhibition | Potency |
| --- | --- | --- |
| CC(C)CC(N(C)C)C1(c2ccc(Cl)cc2)CCC1 (stereo unspecified) | inactive: 0.894% |  |
| O=C1C=C2C=C[C@H]3C[C@]2(O1)[C@@H]1CCCCN13 | inactive: 8.84% |  |
| NC(N)=NC(=O)c1nc(Cl)c(N)nc1N | inactive |  |
| CCCCCCCCCCCCCC(=O)OC1C(C)[C@@]2(O)C(C=C(CO)C[C@]3(O)C(=O)C(C)=C[C@H]23)[C@@H]2C(C)(C)[C@]12OC(C)=O (stereo partly specified) | inactive: -15.1% |  |
| CCSc1nnc(C(N)Cc2ccccc2)o1 (stereo unspecified) | inactive: 4.98% |  |
| O=C(O)c1ccccc1-c1c2cc(Br)c(=O)cc-2oc2[c]([Hg])c(O)c(Br)cc12 | inactive: 5% [at 2.98 µM] |  |
| OCC1OC(n2cnc3cc(Cl)c(Cl)cc32)C(O)C1O (stereo unspecified) | inactive: -31.4% |  |
| CC(C)[C@@]1(NC(=O)[C@@H]2C[C@@H]3c4cccc5[nH]cc(c45)C[C@H]3N(C)C2)O[C@@]2(O)[C@@H]3CCCN3C(=O)[C@H](Cc3ccccc3)N2C1=O | inactive: 14.2% |  |
| CC1(C)C(=O)C=C[C@]2(C)[C@H]3CC[C@@]4(C)[C@H](c5ccoc5)OC(=O)[C@H]5O[C@]54[C@]3(C)[C@H](O)C[C@@H]12 | inactive: -2.49% |  |
| CC(=O)N1CCN(c2ccc(OC[C@H]3CO[C@](Cn4ccnc4)(c4ccc(Cl)cc4Cl)O3)cc2)CC1 | inactive |  |
| COP(=S)(OC)Oc1ccc([N+](=O)[O-])cc1 | inactive: 8.08% |  |
| CCCC/C(C)=C/[C@@H](NP(=O)(c1ccccc1)c1ccccc1)c1ccccc1 | inactive: -1.79% |  |
| COC1=CC(=O)OC(/C=C/c2ccccc2)C1 (stereo unspecified) | inactive: -18.7% |  |
| O=C(NC(=O)c1c(F)cccc1F)Nc1cc(Cl)c(OC(F)(F)C(F)C(F)(F)F)cc1Cl (stereo unspecified) | inactive: -25.3% |  |
| Fc1ccc(C(OCCN2CCN(CCCc3ccccc3)CC2)c2ccc(F)cc2)cc1 | inactive: 3.56% [at 16.9 µM] |  |
| Oc1ccc2c3c1O[C@H]1c4[nH]c5ccccc5c4C[C@@]4(O)C(C2)N(CC2CC2)CC[C@]314 | inactive: 6.28% |  |
| CN1CC[C@@]2(C)c3cc(O)ccc3N(C)[C@@H]12 | inactive: -42.4% |  |
| O=C1NC(=O)N(CCC2=CCCCC2)C(=O)/C1=C/c1cccs1 | inactive: 29.8% |  |
| CNC(=O)[C@H]1C[C@@H]1[C@H](NP(=O)(c1ccccc1)c1ccccc1)c1ccccc1 | inactive: -2.38% |  |
| C=C(C)[C@@H]1CC[C@]2(C(=O)O)CC[C@]3(C)[C@H](CC[C@@H]4[C@@]5(C)CC[C@H](O)C(C)(C)[C@@H]5CC[C@]43C)[C@@H]12 | inactive: -20.6% |  |
| C=C1C(=O)O[C@@H]2C[C@@H](C)[C@@H]3C=CC(=O)[C@@]3(C)[C@@H](OC(=O)CC(=O)O[C@H]3[C@@H]4C(=C)C(=O)O[C@@H]4C[C@@H](C)[C@@H]4C=CC(=O)[C@]43C)[C@H]12 |  | active: 1120 nM |
| CC(C)=CCCC1(C)C=Cc2c(O)c3c(c(CC=C(C)C)c2O1)OC12C(=CC4CC1C(C)(C)OC2(C/C=C(/C)C(=O)O)C4O)C3=O (stereo unspecified) |  | active: 2820 nM |
| O=c1ccc2cc(O[C@@H]3O[C@@H](CO)[C@H](O)[C@@H](O)[C@@H]3O)c(O)cc2o1 | inactive: -15.5% |  |
